The source of these data is EP4755449A2.

First the molecules themselves.
B1: M103205H795-MY001/M103202L889-SK1 (antibody, human IgG1, kappa)
heavy: QVTLKESGPVLVKPTETLTLTCTVSGIDLSHDDISWVRQAPGKGLEWVGIISYAGSTYYASWAKGRLTISKDTSKNQVVLTMTNMDPVDTATYYCARGVPAYSHGGDLWGQGTLVTVSSASTKGPSVFPLAPSSKSTSGGTAALGCLVKDYFPEPVTVSWNSGALTSGVHTFPAVLQSSGLYSLSSVVTVPSSSLGTQTYICNVNHKPSNTKVDKKV[letters of human IgG1 Fc with G236N (EU numbers) not shown]
light: DIVMTQSPATLSLSPGERATLSCTSSQSVYHANWLSWFQQKPGQPPKLLIYWASTLAYGVPSRFSGSGSGTDFTLTISSLQPEDAATYYCAGGYGGGRYAFGQGTKVEIKRTVAAPSVFIFPPSDEQLKSGTASVVCLLNNFYPREAKVQWKVDNALQSGNSQESVTEQDSKDSTYSLSSTLTLSKADYEKHKVYACEVTHQGLSSPVTKSFNRGEC
B2: GpH7-B3 K326T/GpL16-k0 (antibody, human IgG1, kappa)
heavy: QVQLVQSGAEVKKPGASVTVSCKASGYTFTDYEMHWIRQPPGEGLEWIGAIDPKTGDTAYSESFQDRVTLTADKSTSTAYMELSSLTSEDTAVYYCTRFYSYTYWGQGTLVTVSS[letters of human IgG1 constant region with K326T K439E (EU numbers) not shown]
light: DIVMTQSPLSLPVTPGEPASISCQASESLVHSNRNTYLHWYLQKPGQSPQLLIYKVSNRFSGVPDRFSGSGSGTDFTLKISRVEAEDVGVYYCSQNTHVPPTFGQGTKVEIERTVAAPSVFIFPPSDEQLKSGTASVVCLLNNFYPREAKVQWKVDNALQSGNSQESVTEQDSKDSTYSLSSTLTLSKADYEKHKVYACEVTHQGLSSPVTKSFNRGEC
B3: GpH7-B3 I332D/GpL16-k0 (antibody, human IgG1, kappa)
heavy: QVQLVQSGAEVKKPGASVTVSCKASGYTFTDYEMHWIRQPPGEGLEWIGAIDPKTGDTAYSESFQDRVTLTADKSTSTAYMELSSLTSEDTAVYYCTRFYSYTYWGQGTLVTVSS[letters of human IgG1 constant region with I332D K439E (EU numbers) not shown]
light: B2 light
B4: GpH7-B3 P331E/GpL16-k0 (antibody, human IgG1, kappa)
heavy: QVQLVQSGAEVKKPGASVTVSCKASGYTFTDYEMHWIRQPPGEGLEWIGAIDPKTGDTAYSESFQDRVTLTADKSTSTAYMELSSLTSEDTAVYYCTRFYSYTYWGQGTLVTVSS[letters of human IgG1 constant region with P331E K439E (EU numbers) not shown]
light: B2 light
B5: GpH7-B3 K334I/GpL16-k0 (antibody, human IgG1, kappa)
heavy: QVQLVQSGAEVKKPGASVTVSCKASGYTFTDYEMHWIRQPPGEGLEWIGAIDPKTGDTAYSESFQDRVTLTADKSTSTAYMELSSLTSEDTAVYYCTRFYSYTYWGQGTLVTVSS[letters of human IgG1 constant region with K334I K439E (EU numbers) not shown]
light: B2 light
B6: GpH7-B3 K334M/GpL16-k0 (antibody, human IgG1, kappa)
heavy: QVQLVQSGAEVKKPGASVTVSCKASGYTFTDYEMHWIRQPPGEGLEWIGAIDPKTGDTAYSESFQDRVTLTADKSTSTAYMELSSLTSEDTAVYYCTRFYSYTYWGQGTLVTVSS[letters of human IgG1 constant region with K334M K439E (EU numbers) not shown]
light: B2 light
B7: GpH7-B3 K334D/GpL16-k0 (antibody, human IgG1, kappa)
heavy: QVQLVQSGAEVKKPGASVTVSCKASGYTFTDYEMHWIRQPPGEGLEWIGAIDPKTGDTAYSESFQDRVTLTADKSTSTAYMELSSLTSEDTAVYYCTRFYSYTYWGQGTLVTVSS[letters of human IgG1 constant region with K334D K439E (EU numbers) not shown]
light: B2 light
B8: GpH7-B3 K334V/GpL16-k0 (antibody, human IgG1, kappa)
heavy: QVQLVQSGAEVKKPGASVTVSCKASGYTFTDYEMHWIRQPPGEGLEWIGAIDPKTGDTAYSESFQDRVTLTADKSTSTAYMELSSLTSEDTAVYYCTRFYSYTYWGQGTLVTVSS[letters of human IgG1 constant region with K334V K439E (EU numbers) not shown]
light: B2 light
B9: GpH7-B3 L328T/GpL16-k0 (antibody, human IgG1, kappa)
heavy: QVQLVQSGAEVKKPGASVTVSCKASGYTFTDYEMHWIRQPPGEGLEWIGAIDPKTGDTAYSESFQDRVTLTADKSTSTAYMELSSLTSEDTAVYYCTRFYSYTYWGQGTLVTVSS[letters of human IgG1 constant region with L328T K439E (EU numbers) not shown]
light: B2 light

cyno Fc gamma RIIb extracellular domain, His-tagged (cynomolgus monkey), sequence (chain, as listed by the source): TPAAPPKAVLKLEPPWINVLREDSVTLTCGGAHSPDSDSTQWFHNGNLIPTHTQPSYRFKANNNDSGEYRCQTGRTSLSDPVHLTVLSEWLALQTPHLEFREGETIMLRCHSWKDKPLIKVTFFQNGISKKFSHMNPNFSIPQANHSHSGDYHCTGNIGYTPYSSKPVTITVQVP

The first assay concerns the target cyno Fc gamma RIIb extracellular domain, His-tagged (cynomolgus monkey). Nature of the assay: SPR 25C.
As to B1, the relative binding was 85 SG1=100.

Another assay addresses cyno Fc gamma RIIa3 extracellular domain, His-tagged (cynomolgus monkey). Briefly: SPR 25C.
Molecule B1 gave a relative binding of 62 SG1=100.

A further assay deals with human Fc gamma RIIb extracellular domain, His-tagged (human) (UniProt P31994). Nature of the assay: SPR 25C.
UniProt P31994, sequence (P31994 43-217): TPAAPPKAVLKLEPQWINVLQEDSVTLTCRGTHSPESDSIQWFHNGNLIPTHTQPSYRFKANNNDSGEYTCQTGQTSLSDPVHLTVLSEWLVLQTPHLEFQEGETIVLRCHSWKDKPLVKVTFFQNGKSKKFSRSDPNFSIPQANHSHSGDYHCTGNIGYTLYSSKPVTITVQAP
As to B2, the relative binding (parent B3=100) was 195.
Consider B3, for which the relative binding (parent B3=100) was 198.
On the same count and under the same terms, to B4 belongs 100; to B5, 174.
For B6, the relative binding (parent B3=100) came to 148.
For the molecule B7, the relative binding (parent B3=100) was 108.
Take B8: the relative binding (parent B3=100) came out at 184.
With B9, the relative binding (parent B3=100) came out at 179.
Take B1: the KD fold vs SG1 stood at 0.6 fold.

Another assay deals with human Fc gamma RIIaR extracellular domain, His-tagged (human) (UniProt P12318). Nature of the assay: SPR 25C.
Consider B2, for which the relative binding (parent B3=100) stood at 127.
B3: the relative binding (parent B3=100) was 139.
Take B4: the relative binding (parent B3=100) was 67.
The same measure, in the same setting: to B5 belongs 137; to B6, 127; to B7, 72.
As to B8, the relative binding (parent B3=100) stood at 132.
Regarding B9, the relative binding (parent B3=100) was 135.
Take B1: the KD fold vs SG1 was found to be 0.1 fold.

For another assay, the target named is cyno Fc gamma RIIIaS extracellular domain, His-tagged (cynomolgus monkey) (UniProt Q8SPW2). Briefly: SPR 25C.
UniProt Q8SPW2, sequence (Q8SPW2 other isoform, or with tags, fused parts or gaps): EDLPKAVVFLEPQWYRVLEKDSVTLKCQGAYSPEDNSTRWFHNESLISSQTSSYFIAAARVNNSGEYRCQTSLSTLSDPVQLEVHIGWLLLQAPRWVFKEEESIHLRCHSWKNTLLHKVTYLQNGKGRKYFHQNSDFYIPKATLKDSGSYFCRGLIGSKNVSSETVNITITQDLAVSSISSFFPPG
Consider B1, for which the KD fold vs SG1 was determined as 0.03 fold and the relative binding turned out to be 15 SG1=100.

Another assay deals with cyno Fc gamma RIIa2 extracellular domain, His-tagged (cynomolgus monkey). Briefly: SPR 25C.
In turn, B1 had a relative binding of 86 SG1=100.

The target of a further assay is human Fc gamma RIIIaV extracellular domain, His-tagged (human) (UniProt P08637). Briefly: SPR 25C.
UniProt P08637, sequence (P08637 17-208 F176V): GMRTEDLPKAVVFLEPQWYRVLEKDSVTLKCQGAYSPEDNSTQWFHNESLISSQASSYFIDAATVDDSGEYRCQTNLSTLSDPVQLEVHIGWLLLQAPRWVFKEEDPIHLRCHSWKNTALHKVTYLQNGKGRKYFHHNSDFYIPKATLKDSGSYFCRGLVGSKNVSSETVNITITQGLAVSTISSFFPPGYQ
As to B2, the relative binding (parent B3=100) is 164.
As for B3, the relative binding (parent B3=100) turned out to be 235.
For B4, the relative binding (parent B3=100) came out at 46.
For the molecule B5, the relative binding (parent B3=100) came out at 187.
In the case of B6, the relative binding (parent B3=100) was determined as 183.
Same read-out and setting: with B7 the figure was 155.
In the case of B8, the relative binding (parent B3=100) stood at 176.
Still for that read-out and setting: with B9 the figure was 53.
Take B1: the KD fold vs SG1 turned out to be 0.04 fold.

Another assay deals with cyno Fc gamma RIIa1 extracellular domain, His-tagged (cynomolgus monkey). Briefly: SPR 25C.
The molecule B1 displayed a relative binding of 83 SG1=100.

In another assay the target is human Fc gamma RIIaH extracellular domain, His-tagged (human) (UniProt P12318). Briefly: SPR 25C.
As to B2, the relative binding (parent B3=100) came out at 138.
With B3, the relative binding (parent B3=100) came to 129.
In the case of B4, the relative binding (parent B3=100) amounted to 96.
For B5, the relative binding (parent B3=100) was determined as 169.
As for B6, the relative binding (parent B3=100) stood at 151.
Turning to B7, the relative binding (parent B3=100) came out at 97.
Turning to B8, the relative binding (parent B3=100) is 172.
As to B9, the relative binding (parent B3=100) came out at 156.
As to B1, the KD fold vs SG1 was 0.2 fold.
